# From the supplement of paper PMC10037445
# In all, about 2,900 compounds were measured (“IRF Lucia reporter activity, fold change vs agonist alone”: median about 0.9, highest 2% from about 2.8 on). This is one part of the list.
# Columns and labels:
# [1] = system: RAW-Dual; test: IRF Lucia reporter activity, fold change vs agonist alone; higher = enhanced IRF activity; details: cytotoxicity flag (confluency mask): not cytotoxic, agonist: MPLA (TLR4) […]
# Procedure, shortened: (§1)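 Library stock was pin-tooled at 50 nL into 384-well plates of RAW-Dual macrophages (50,000 cells/well, DMEM), followed 1 h later by a PRR agonist, and the cells were kept at 37 °C, 5% CO2. Supernatant collected after 20 hours was read for IRF by QuantiLuc luminescence and for NF-κB by QuantiBlue absorbance at 620 nm. Reporter activity is fold change over agonist-alone wells, and a well counted as cytotoxic when its IncuCyte confluency was below 70% of agonist controls in both mask sets.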
# [2] = system: RAW-Dual; test: IRF Lucia reporter activity, fold change vs agonist alone; cytotoxicity flag (confluency mask): not cytotoxic; higher = enhanced IRF activity
# Procedure, shortened: as §1
# [3] = library stock concentration (final ~1000-fold dilution): 10 mM
# [4] = agonist: 3'3'-cGAMP (STING) 10 ug/mL
compound,measurement,setting,value
COC(c1ccccc1)(c1ccccc1)C(Oc1nc(C)cc(C)n1)C(=O)O (centres undefined),IRF Lucia reporter activity,[1]; [3],1.07
COC(c1ccccc1)(c1ccccc1)C(Oc1nc(C)cc(C)n1)C(=O)O (centres undefined) (library stock concentration (final ~1000-fold dilution): 10 mM),IRF Lucia reporter activity,[2]; [4],1.11
same,IRF Lucia reporter activity,[2]; agonist: LPS (TLR4) 0.1 ug/mL,1.06
Cc1cc(=O)n(-c2ccccc2)n1C (library stock concentration (final ~1000-fold dilution): 10 mM),IRF Lucia reporter activity,[2]; [4],0.988
same,IRF Lucia reporter activity,[2]; agonist: LPS (TLR4) 0.1 ug/mL,0.739
Cc1cc(=O)n(-c2ccccc2)n1C,IRF Lucia reporter activity,[1]; [3],0.987
O=c1cc(-c2ccc(O)cc2)oc2c(C3OCC(O)C(O)C3O)c(O)c(C3OC(CO)C(O)C(O)C3O)c(O)c12 (centres undefined) (library stock concentration (final ~1000-fold dilution): 10 mM),IRF Lucia reporter activity,[2]; [4],1.03
same,IRF Lucia reporter activity,[2]; agonist: LPS (TLR4) 0.1 ug/mL,0.867
C=CC(=O)N1CCC(Oc2cc3c(Nc4ccc(Cl)c(Cl)c4F)ncnc3cc2OC)CC1 (library stock concentration (final ~1000-fold dilution): 10 mM),IRF Lucia reporter activity,[2]; [4],0.0242
same,IRF Lucia reporter activity,[2]; agonist: LPS (TLR4) 0.1 ug/mL,0.101
C=CC(=O)N1CCC(Oc2cc3c(Nc4ccc(Cl)c(Cl)c4F)ncnc3cc2OC)CC1,IRF Lucia reporter activity,[1]; [3],0.127
CC(NC(=O)C(O)C(C)C)C(=O)NC1C(=O)N(C)CCc2ccccc21 (centres undefined),IRF Lucia reporter activity,[1]; [3],1.06
CC(NC(=O)C(O)C(C)C)C(=O)NC1C(=O)N(C)CCc2ccccc21 (centres undefined) (library stock concentration (final ~1000-fold dilution): 10 mM),IRF Lucia reporter activity,[2]; [4],1.16
same,IRF Lucia reporter activity,[2]; agonist: LPS (TLR4) 0.1 ug/mL,0.9
NC(=O)c1noc(C(CCCC2CCCCC2)CC(=O)NO)n1 (centres undefined) (library stock concentration (final ~1000-fold dilution): 10 mM),IRF Lucia reporter activity,[2]; [4],0.0719
same,IRF Lucia reporter activity,[2]; agonist: LPS (TLR4) 0.1 ug/mL,0.466
NC(=O)c1noc(C(CCCC2CCCCC2)CC(=O)NO)n1 (centres undefined),IRF Lucia reporter activity,[1]; [3],0.63
CN1CCc2nc(C(=O)NC3CC(C(=O)N(C)C)CCC3NC(=O)C(=O)Nc3ccc(Cl)cn3)sc2C1.Cc1ccc(S(=O)(=O)O)cc1.O (centres undefined),IRF Lucia reporter activity,[1]; [3],0.993
CN1CCc2nc(C(=O)NC3CC(C(=O)N(C)C)CCC3NC(=O)C(=O)Nc3ccc(Cl)cn3)sc2C1.Cc1ccc(S(=O)(=O)O)cc1.O (centres undefined) (library stock concentration (final ~1000-fold dilution): 10 mM),IRF Lucia reporter activity,[2]; [4],0.859
same,IRF Lucia reporter activity,[2]; agonist: LPS (TLR4) 0.1 ug/mL,0.989
CN1CCN(C2=Nc3cc(Cl)ccc3Nc3ccccc32)CC1,IRF Lucia reporter activity,[1]; [3],1.64
CN1CCN(C2=Nc3cc(Cl)ccc3Nc3ccccc32)CC1 (library stock concentration (final ~1000-fold dilution): 10 mM),IRF Lucia reporter activity,[2]; [4],0.865
same,IRF Lucia reporter activity,[2]; agonist: LPS (TLR4) 0.1 ug/mL,1.47
CCC(=O)OC(OP(=O)(CCCCc1ccccc1)CC(=O)N1CC(C2CCCCC2)CC1C(=O)O)C(C)C (centres undefined) (library stock concentration (final ~1000-fold dilution): 10 mM water),IRF Lucia reporter activity,[2]; [4],1.29
same,IRF Lucia reporter activity,[2]; agonist: LPS (TLR4) 0.1 ug/mL,0.873
CCC(=O)OC(OP(=O)(CCCCc1ccccc1)CC(=O)N1CC(C2CCCCC2)CC1C(=O)O)C(C)C (centres undefined),IRF Lucia reporter activity,[1]; library stock concentration (final ~1000-fold dilution): 10 mM water,1.41
Cc1c(Cc2ccc3ccccc3n2)c2cc(F)ccc2n1CC(=O)O (library stock concentration (final ~1000-fold dilution): 10 mM),IRF Lucia reporter activity,[2]; [4],1.07
same,IRF Lucia reporter activity,[2]; agonist: LPS (TLR4) 0.1 ug/mL,1.03
Cc1c(Cc2ccc3ccccc3n2)c2cc(F)ccc2n1CC(=O)O,IRF Lucia reporter activity,[1]; [3],1.05
COc1ccc(-c2coc3cc(O)ccc3c2=O)cc1S(=O)(=O)O (library stock concentration (final ~1000-fold dilution): 10 mM),IRF Lucia reporter activity,[2]; [4],0.98
same,IRF Lucia reporter activity,[2]; agonist: LPS (TLR4) 0.1 ug/mL,1.22
C/C=C(/C)C(=O)OC1c2c(ccc3ccc(=O)oc23)OC(C)(C)C1OC(=O)/C(C)=C\C (centres undefined) (library stock concentration (final ~1000-fold dilution): 10 mM),IRF Lucia reporter activity,[2]; [4],1.31
same,IRF Lucia reporter activity,[2]; agonist: LPS (TLR4) 0.1 ug/mL,0.143
C[C@@H]1O[C@@H](O[C@H]2C(=O)c3c(O)cc(O)cc3O[C@@H]2c2ccc(O)cc2)[C@H](O)[C@H](O)[C@H]1O (library stock concentration (final ~1000-fold dilution): 10 mM),IRF Lucia reporter activity,[2]; [4],0.228
same,IRF Lucia reporter activity,[2]; agonist: LPS (TLR4) 0.1 ug/mL,1.17
O=C1NC(=O)/C(=C/c2ccc3c(c2)OC(F)(F)O3)S1,IRF Lucia reporter activity,[1]; [3],1.03
O=C1NC(=O)/C(=C/c2ccc3c(c2)OC(F)(F)O3)S1 (library stock concentration (final ~1000-fold dilution): 10 mM),IRF Lucia reporter activity,[2]; [4],0.97
same,IRF Lucia reporter activity,[2]; agonist: LPS (TLR4) 0.1 ug/mL,1.19
CNC1(C)C2CCC(C2)C1(C)C.Cl (centres undefined) (library stock concentration (final ~1000-fold dilution): 10 mM),IRF Lucia reporter activity,[2]; [4],0.982
same,IRF Lucia reporter activity,[2]; agonist: LPS (TLR4) 0.1 ug/mL,1.28
Br.Cc1ccc(-c2cn3c4c(sc3n2)CCCC4)cc1,IRF Lucia reporter activity,[1]; [3],1.06
Br.Cc1ccc(-c2cn3c4c(sc3n2)CCCC4)cc1 (library stock concentration (final ~1000-fold dilution): 10 mM),IRF Lucia reporter activity,[2]; [4],0.958
same,IRF Lucia reporter activity,[2]; agonist: LPS (TLR4) 0.1 ug/mL,0.971
Nc1ccc(C(=O)Nc2cccc(-c3nc(N4CCOCC4)c4oc5ncccc5c4n3)c2)cn1,IRF Lucia reporter activity,[1]; [3],3.52
